Molecules are shown by their SMILES. About 4,300 (8.3%) of roughly 52,000 compounds were called active. Cut-off read from the data, not from the text of the source: active = survival mostly below about 52% (no sharp cut-off); inactive = mostly above about 56%. The list shows a part of the results.

For the experiment, the system named is DeltatarO mutant. Nature of the experiment: growth inhibition of S. aureus wild type versus tarO mutant, primary screen, teichoic acid synthesis inhibitors, RN4220, OD600 (AID 463173). The note with it: OD600, 18 h, hits give low values, screened at 18.75 µg/mL (by protocol).
For `O=S(=O)(NCc1nc2cccnc2n1Cc1ccccc1Cl)c1ccc(F)c(Cl)c1`, the survival is inactive: 87%.

For the compound `CC(=O)c1c(C)oc2c1cc(NS(=O)(=O)c1ccc(Cl)c(C)c1)c1ccccc12`, the survival was inactive: 70%.

As to `Cc1cccc(C(=O)N=Nc2c(O)[nH]c3ccc(C)cc23)c1`, the survival is inactive: 78%.

As for `Cc1ccc(-c2nc(CCNC(=O)C(=O)Nc3ccc(C)c(C)c3)cs2)cc1`, the survival is active: 20%.

Consider `Cc1ccc(C)n1-c1nnc(N2CCC(C(=O)NCc3ccccc3Cl)CC2)s1`, for which the survival was inactive: 95%.

For the compound `CCC(c1nnnn1Cc1ccccc1)N1CCN(c2cccc(C)c2C)CC1` (centres undefined), the survival is inactive: 105%.

Turning to `COc1ccc(S(=O)(=O)N(Cc2nc(-c3ccc(C)cc3)no2)C2CCCCC2)cc1`, the survival is inactive: 63%.

Consider `CCc1ccc(-n2c(=O)c3c4c(sc3n(Cc3ccc(F)cc3)c2=O)CCCC4)cc1`, for which the survival is inactive: 42%.

For the compound `COc1ccc(CNC(=O)c2cccc(N3CCCS3(=O)=O)c2)cc1`, the survival was inactive: 83%.

For the compound `O=C1[C@@H]2CSC(c3ccc(F)cc3)N2C(=O)N1c1ccc(Cl)cc1` (some centres undefined), the survival is inactive: 76%.

Regarding `O=C(Cn1c(=O)n2nc(-c3ccccc3)nc2c2ccccc21)Nc1ccccc1C(F)(F)F`, the survival was inactive: 86%.

Consider `COc1cccc(C(=O)N2CC(C)OC(C)C2)c1` (centres undefined), for which the survival is inactive: 65%.

For the compound `Cc1ccc2oc(=O)c3cnn(CC(=O)NCc4ccccc4Cl)c3c2c1`, the survival is inactive: 73%.

For the compound `Cc1ccc(N2CCN(c3nc4ccc(C)cc4n4nnnc34)CC2)c(C)c1`, the survival is inactive: 87%.

`Cc1ccc(NC2=C(c3ccc(C(F)(F)F)cc3)C(=O)c3ccccc32)cc1F`: the survival was active: 28%.

On to `CCOc1ccccc1NC(=O)CSc1nc2ccccc2c2nc(CCn3cncc3C)nn12`, for which the survival is inactive: 99%.

Take `O=C(NCC(c1cccnc1)N1CCc2ccccc21)c1ccccc1Br` (centres undefined): the survival is inactive: 56%.

Turning to `CCCN(CCC)C(=O)Cn1c(=O)n(-c2cccc(C(F)(F)F)c2)c(=O)c2c(C)c(C)sc21`, the survival was inactive: 44%.

`O=C(Cn1c(=O)n(Cc2ccco2)c(=O)c2cccnc21)Nc1ccccc1F`: the survival was inactive: 88%.

As for `O=C(Nc1ccc2nc(SCC(=O)N3CCCC3)sc2c1)c1ccccc1`, the survival is inactive: 83%.

In the case of `CCOc1cc(C(=O)Nc2ccc(-c3nc4cc(C)ccc4o3)cc2)cc(OCC)c1OCC`, the survival is active: 27%.

Take `COc1cc2c(-c3ccccc3C)nc3c(c(C)nn3-c3ccccc3)c2cc1OC`: the survival was active: 35%.

For the compound `CCCCC12CN3CC(C)(CN(C1)C3c1cc(Br)ccc1O)C2=O` (centres undefined), the survival was inactive: 72%.

With `COc1ccc(NC(=O)c2ccc3nc(CCc4ccccc4)oc3c2)cc1`, the survival was inactive: 106%.

In the case of `CCOC(=O)CNC(=O)Nc1cc(C(=O)NCc2cccc(F)c2)ccc1N1CCCC1`, the survival was inactive: 74%.

`COc1ccc(NC(=O)C(NC(=O)c2ccccc2NC(=O)c2ccco2)C(C)C)cc1` (centres undefined): the survival was inactive: 83%.

As for `CS(=O)(=O)c1ccc2nc(NC(=O)CS(=O)(=O)c3ccc(Cl)cc3)sc2c1`, the survival is inactive: 77%.

With `COc1ccccc1NC(=O)C1CCCN(c2nnc(C)c3c(C)n(-c4ccccc4)nc23)C1` (centres undefined), the survival is inactive: 84%.

Take `Cc1csc2nc(COC(=O)c3ccc(NC(=O)COc4ccccc4F)cc3)cc(=O)n12`: the survival was inactive: 130%.

As to `CC1=C(C(=O)OCC2CCCCC2)C(c2ccc(F)cc2F)CC(=O)N1` (centres undefined), the survival was inactive: 90%.

For `COc1ccccc1CNC(=O)C(=O)NCC(c1cccs1)S(=O)(=O)c1ccc(F)cc1` (centres undefined), the survival was inactive: 80%.

As to `Cc1ccc(CNC(=O)C2CCN(S(=O)(=O)N3CCC(C)CC3)CC2)cc1`, the survival was inactive: 91%.

In the case of `Oc1c(C(c2ccccc2)N2CCN(Cc3ccccc3)CC2)sc2nc(-c3ccco3)nn12` (centres undefined), the survival is active: 37%.

Consider `Cc1ccc(S(=O)(=O)Nc2nc(O)c(C3=c4ccccc4=NC3=O)s2)cc1`, for which the survival is inactive: 75%.

Turning to `CCc1ccc(NC(=O)CC2C(=O)N(c3cccc(C)c3)C(=O)N2Cc2cccs2)cc1` (centres undefined), the survival was active: 20%.

`Cc1ccc(OCC(=O)Nc2c(C(=O)c3ccccc3)oc3ccccc23)cc1C`: the survival is inactive: 92%.

With `COc1ccc(CNC(=O)Cn2c(SCC(=O)N(C)c3ccccc3)nc3ccccc32)cc1`, the survival is inactive: 77%.

Turning to `CCCCn1c(=O)n(-c2ccc(Br)cc2F)c(=O)c2c3c(sc21)CN(C(C)=O)CC3`, the survival was inactive: 68%.

On to `CCOC(=O)c1noc2nc(C)n(CC(=O)Nc3cc(Cl)ccc3OC)c(=O)c12`, for which the survival was inactive: 109%.

For the compound `COc1cc(C(=O)Nc2ccc3nn(-c4ccc(F)cc4)nc3c2)cc(OC)c1OC`, the survival is active: 45%.

On to `CCOc1ccccc1NC(=O)C(C)Sc1cc(-c2ccccc2)nc(C)n1` (centres undefined), for which the survival was inactive: 59%.

For the compound `Cn1c(=O)cc(SCC(=O)NCc2ccc(F)cc2)c2ccc(Cl)cc21`, the survival was inactive: 91%.

Turning to `COc1ccc(-c2nnc(SCC(=O)Nc3cccc(F)c3)s2)cc1`, the survival is inactive: 83%.

On to `COC(=O)C1=CN(C2CC2)C=C(C(=O)OC)C1c1ccsc1`, for which the survival was active: 60%.

Regarding `O=C1CCN(Cc2ccccc2)C(=S)N1`, the survival was active: 49%.

Take `COc1cc(Cl)c(C)cc1NC(=O)CCc1nc2cccnc2n1-c1ccccc1`: the survival is inactive: 75%.

For `CC(=O)Nc1nnc(SCc2cc(=O)c3cc(C)ccc3[nH]2)s1`, the survival is inactive: 73%.

On to `CC1=C(C(=O)Nc2ccccc2)C(c2ccccc2)n2nc(-c3ccco3)nc2N1` (centres undefined), for which the survival is inactive: 77%.

`COc1ccc(NC(=O)Cn2c(SCc3cccc(Cl)c3)nc3ccncc32)c(OC)c1OC`: the survival is inactive: 57%.

Consider `CCn1c(C(=O)N2CCC(C(=O)N3CCN(c4cccc(C)c4C)CC3)CC2)cc2sccc21`, for which the survival is inactive: 55%.

As for `CC(=O)N=c1cccc(NC(C)=O)n1O`, the survival was inactive: 103%.

Take `CCOc1ccc2nc(N3CCN(C(=O)CS(=O)(=O)c4ccc(F)cc4)CC3)sc2c1`: the survival was inactive: 73%.

With `CCN1c2ccccc2-n2cccc2C12CCN(C(=O)Nc1ccccc1C(F)(F)F)CC2`, the survival is inactive: 102%.

In the case of `CCOc1ccc(CNC(=O)Cn2c(=O)c3cccn3c3ccc(F)cc32)cc1`, the survival is inactive: 80%.

Consider `CCOc1ccc(OCC)c(NC(=O)C2CCCN(S(=O)(=O)c3ccc4c(c3)oc(=O)n4C)C2)c1` (centres undefined), for which the survival was inactive: 95%.

`Cc1cccc(-c2nc(SCCCOc3ccccc3Cl)n3[nH]c(=O)cc3n2)c1`: the survival was inactive: 57%.

In the case of `C#CCNc1c2c(nc3nnnn13)CCCC2`, the survival was inactive: 84%.

Take `O=C(Nc1ccc(F)c(Cl)c1)N1CCN(C(=O)c2nsc3ccccc23)CC1`: the survival is inactive: 68%.

Take `Cc1cc(C)cc(-n2c(SCC(=O)N3CCc4ccccc43)nc3c([nH]c4ccccc43)c2=O)c1`: the survival was inactive: 55%.

Take `CC(=O)Nc1ccc(Nc2ncnc3c2c(-c2ccccc2)cn3-c2ccccc2)cc1`: the survival was inactive: 125%.

For the compound `c1ccc(CNc2nc3ccccc3c3nc(-c4ccccc4)nn23)cc1`, the survival was inactive: 54%.

As to `Cn1c(=O)c2nc(SCC(=O)Nc3cc(Cl)ccc3Cl)n(C)c2n(C)c1=O`, the survival is inactive: 89%.

Turning to `NC(=O)CSc1nc2c(oc3ccccc32)c(=O)n1-c1ccccc1F`, the survival is inactive: 59%.

Consider `COc1ccc(Cl)cc1NC(=O)N1CCC(CN2CCc3ccccc3C2)CC1`, for which the survival was inactive: 109%.

As for `O=c1c2cc3c(cc2nc2sc(Nc4ccc(F)cc4F)nn12)OCO3`, the survival is inactive: 56%.

As to `Cn1nc(C(=O)N2CCN(c3ccc(Cl)cc3)CC2)c2c1-c1ccccc1SC2`, the survival was inactive: 82%.

`Cc1ccc(NC(=O)Cn2nnnc2-c2ccccc2N)cc1`: the survival was inactive: 73%.

In the case of `CCN(CC)C(=O)CSc1nc2cccnc2n1C`, the survival is inactive: 74%.

Turning to `O=C(C1CCCN(S(=O)(=O)c2cccs2)C1)N1CCN(c2cccc(Cl)c2)CC1` (centres undefined), the survival is inactive: 89%.

For `Cc1ccc(C)c(N2CCN(c3ncnc4c3nc3n4CCCCC3)CC2)c1`, the survival is inactive: 91%.

On to `COc1ccc(Nc2cc(C(=O)NCCc3ccccc3)c3ccccc3n2)cc1OC`, for which the survival was inactive: 99%.

Turning to `COc1ccc(OCCn2c(C3CC(=O)N(c4ccc(F)cc4)C3)nc3ccccc32)cc1` (centres undefined), the survival is active: 59%.

`COc1ccccc1Nc1cc(C)nc2nc(-c3ccccc3)nn12`: the survival was inactive: 55%.

On to `Cc1ccc(CNC(=O)Cn2ncc3c(C)n(Cc4ccc(Cl)cc4)c(C)c3c2=O)cc1`, for which the survival was inactive: 64%.

For the compound `CCCCOC(=O)c1ccc(NS(=O)(=O)c2c(C)nc3scc(C)n3c2=O)cc1`, the survival is active: 43%.

Regarding `CCCN(C(=O)Cn1ncc2c(=O)oc3ccccc3c21)c1cccc(C)c1`, the survival is inactive: 79%.

For `Cc1ccc(NC(=O)c2c(N3CCCC3=O)c3cc(C)ccc3n2C)c(C)c1`, the survival was inactive: 79%.

Consider `COc1ccc2[nH]c(=O)c(CN(Cc3ccco3)C(=S)NC3CCCCC3)cc2c1`, for which the survival was inactive: 77%.

As to `CCC(C)NC(=O)Cn1c(=O)n(Cc2ccc(C(=O)NCCCOC)cc2)c(=O)c2ccccc21` (centres undefined), the survival was inactive: 90%.

In the case of `O=C(NC1CCCCC1)O/N=C/c1ccc(F)cc1`, the survival was inactive: 95%.

Turning to `CCc1ccc(-n2nc3cc(C)c(NC(=O)c4cc(Cl)ccc4OC)cc3n2)cc1`, the survival was inactive: 86%.

As to `Cc1ccc(NC(=O)c2ccc(NC(=O)N3CCSc4ncccc43)cc2)cc1Cl`, the survival is inactive: 109%.

Regarding `O=C(NCc1ccccc1)C(c1ccc(F)cc1)N(Cc1ccco1)C(=O)c1ccccn1` (centres undefined), the survival is inactive: 81%.

`O=C(Cn1cc(S(=O)(=O)Cc2ccc(F)cc2)c2ccccc21)NCCc1ccccc1`: the survival is inactive: 87%.

As for `Cc1ccc2c(=O)cc(C(=O)Nc3sc4c(c3C(=O)NCc3ccco3)CCC4)oc2c1C`, the survival was inactive: 78%.

`Cc1ccccc1CNC(=O)c1c(C)oc2c1C1=NCCN1C=N2`: the survival is inactive: 77%.

With `Cc1ccccc1Cn1cc(S(=O)(=O)c2ccc(Cl)cc2)c(=O)c2cc3c(cc21)OCO3`, the survival is inactive: 73%.

Consider `Cc1c(NC(=O)c2nc3ccccc3n(C)c2=O)cccc1[N+](=O)[O-]`, for which the survival was inactive: 82%.

For `COC(=O)c1c(NC(=O)c2ccc(S(=O)(=O)N3CCCC(C)C3)cc2)sc2c1CCN(C(C)C)C2` (centres undefined), the survival was inactive: 99%.

These data come from PubChem BioAssay AID463173 (ICCB-Longwood Screening Facility, Harvard Medical School, 2010).
